From the RNAGym collection of RNA variant scans (doi:10.7554/elife.90254)
The source gives no read counts; variants with many changes may rest on few reads.

B1: LINE1-mini (parent)
chain: GGCAGAGCUCAACACAGCGUGGCAAAGUGGCUGUGGCUAGACUGCC

Variants of: B1
Assay: self-cleavage, relative activity (ratio to wild type); higher = more cleavage; in vitro, sequencing; the parent is a self-cleaving ribozyme

Variant | self-cleavage
U9G C13A C15G U20A | 0.11
U9G C13A C23U U28G U38C | 0.1
U9G C13A U20C C46U | 0.03
U9G C13A U34G U38C G40C | 0.03
U9G C13G A14U A16U G30A | 0.02
U9G C13G A39U | 0.11
U9G C13U A16G U20A A26G C37A | 0.17
U9G C13U G19A G40A | 0.1
U9G C13U G19C | 0.03
U9G C13U G19U | 0.04
U9G C13U G29C G40U | 0.03
U9G C13U U20G G35A | 0.06
U9G C15A C37A | 0.29
U9G C15A C42G | 0.09
U9G C15A G19A A25U | 0.26
U9G C15A G21A U34G C37G | 0.05
U9G C15A G21C G30A U32G | 0.04
U9G C15A G21U A26U | 0.08
U9G C15G A25G G30U G44C C45G | 0.05
U9G C15G A39G C45G | 0.1
U9G C15G G19A C31U A39G | 0.02
U9G C15G G29U G44U | 0
U9G C15G G35U C37A | 0.02
U9G C15U C18U U20A U28G G35U C42A | 0.02

Variant | self-cleavage
U9G C15U G22C G27C G40A U43C | 0.01
U9G C18A A24G C31U | 0
U9G C18A G22A U43G | 0.05
U9G C18A G27C G33A | 0.03
U9G C18A G29C C31G C37A A41U | 0.03
U9G C18A G30C | 0.03
U9G C18A U20G G22U U28C C46U | 0.02
U9G C18U C42U | 0.24
U9G C18U G33A A39G | 0.03
U9G C23A C42U | 0.06
U9G C23A G33C C37A | 0.03
U9G C23A G40A | 0.06
U9G C23A G40U C45A | 0.14
U9G C23U C37A U43G | 0.02
U9G C23U G29U | 0.09
U9G C23U U32C | 0.08
U9G C31A G44A | 0.04
U9G C31G C37G G40A G44A | 0.02
U9G C31G G33A | 0.02
U9G C31U A39U C42U | 0.02
U9G C31U C45U | 0
U9G C31U G36U | 0.01
U9G C31U U38G | 0
U9G C37A G40U C42A C46A | 0.07

Variant | self-cleavage
U9G C37A G44C | 0.13
U9G C37G U38G | 0
U9G C42A C46G | 0.31
U9G C42A U43G G44C | 0.08
U9G G17A C18U C37U A39U G40U | 0.01
U9G G17A C46U | 0.05
U9G G17C C18A G29C C37A A41C | 0.02
U9G G17C C18G | 0.06
U9G G17C C23A | 0.27
U9G G17C C42A | 0.03
U9G G17C G19C U20A A24C A26C U28G C42G | 0.02
U9G G17C G35C | 0.02
U9G G17C G40C | 0.15
U9G G17U A26U | 0.01
U9G G17U C18A G36U A41C | 0.16
U9G G17U C45A | 0.01
U9G G17U G21C G22A C31U | 0.01
U9G G17U U20C G30U | 0.02
U9G G17U U38A | 0.02
U9G G17U U43A G44C | 0.01
U9G G19A A25C C31A C45A | 0.03
U9G G19A G22A | 0.03
U9G G19A G22C A25U | 0.02
U9G G19A G30U U34C C37U | 0.01

Variant | self-cleavage
U9G G19A G35U C45A | 0.09
U9G G19A G40U | 0.11
U9G G19A U20G A26G A39U | 0.29
U9G G19C A25G U34G A39U | 0.01
U9G G19C C42U | 0.02
U9G G19C G29U | 0.05
U9G G19C U34G G40A | 0.02
U9G G19U A25C G29C U38C | 0.03
U9G G19U C23U U28C | 0.06
U9G G19U C31G G35A A39U | 0.03
U9G G21A G29A | 0.03
U9G G21A G30A C45A | 0.04
U9G G21A U28C U38G C46G | 0.01
U9G G21A U28G G29C | 0.03
U9G G21C C31G U38G G44U | 0.01
U9G G21C G33C C46U | 0.03
U9G G21C U32C G33A | 0.02
U9G G21U A41U | 0.09
U9G G21U C45U C46G | 0.13
U9G G21U G22A G29U | 0.04
U9G G21U G27C | 0.06
U9G G21U G27C G36U C37A | 0.28
U9G G21U G30C | 0.01
U9G G22A C31A | 0

Variant | self-cleavage
U9G G22A G30A | 0.07
U9G G22A G36A | 0.21
U9G G22A G44C | 0.06
U9G G22C A25C G36U | 0.45
U9G G22C A39U | 0.02
U9G G22C C46U | 0.09
U9G G22C G30A C31G C37U | 0.02
U9G G22C G33U G36C | 0.01
U9G G22C U28G G29U | 0.01
U9G G22C U34A C45A | 0.03
U9G G22U C23A | 0.07
U9G G22U U38A C45G | 0.01
U9G G27A G30U | 0.06
U9G G27A G33U U38A U43A | 0.01
U9G G27A U28G | 0.1
U9G G27C C37A | 0.09
U9G G27C G29U G36A G44C | 0.02
U9G G27C G33A | 0
U9G G27C U43C | 0.03
U9G G27U A41U | 0.06
U9G G27U C31U | 0.03
U9G G27U C46U | 0.55
U9G G27U G36C | 0.09
U9G G29A G35A | 0.09

Variant | self-cleavage
U9G G30A C45G | 0.36
U9G G30C C42A | 0.05
U9G G30U C31U | 0.01
U9G G30U U32G C42G | 0.05
U9G G33C A41C | 0.01
U9G G33C A41G | 0.01
U9G G35A C37G U43C | 0.04
U9G G35A G36U C45G | 0.15
U9G G35C C37G G40C | 0.01
U9G G36A U38G | 0.05
U9G G36U A39G | 0.04
U9G G36U G40U | 0.03
U9G G40C C45G | 0.06
U9G U20A A41C | 0.1
U9G U20A G22A U32C C37G G40A C42U C45U C46G | 0.03
U9G U20A G27C | 0.06
U9G U20A G30U | 0.11
U9G U20A G36A | 0.12
U9G U20C A25U | 0.03
U9G U20C G33A | 0
U9G U20C G33C A41C | 0.01
U9G U20C U28C | 0.14
U9G U20C U32A | 0.02
U9G U20G A24G | 0.05

Variant | self-cleavage
U9G U28C C31A | 0.2
U9G U28C C46G | 0.03
U9G U32C C46U | 0.44
U9G U32C G33A C37U | 0.04
U9G U32G C42A | 0.03
U9G U32G G40C C42A | 0.01
U9G U34C C37U | 0
U9G U38A C45A | 0.08
C10A A11C A14C G21A U38A | 0
C10A A11C A14U G19A C42A | 0.01
C10A A11C A16U G22C C23A G35A | 0.01
C10A A11C A39U | 0.03
C10A A11C C13G G35U | 0.01
C10A A11C C18U U38A | 0
C10A A11C C23A A24C G33U A39G | 0.01
C10A A11C G17C G30U C37G | 0
C10A A11C G19A U20A A24U | 0.01
C10A A11C G27A C31A | 0.03
C10A A11C G27A U34A | 0.04
C10A A11C G30U | 0.03
C10A A11C G33C | 0.01
C10A A11C U20A A24U A25U | 0.01
C10A A11C U20G | 0.04
